# Results: PubChem BioAssay AID686971 (National Center for Advancing Translational Sciences (NCATS), 2013)
# Screen size: about 360,000 compounds; about 7,500 (2.1%) were called active. The inconclusive results got no clear call from the source; some entries with a clear call stand among them for comparison. Calls come from the whole dose curve; as a rule, active = well fitted cell-killing curve with a large enough effect; inconclusive = small, poorly fitted or top-dose-only effect, or effect the other way, or another doubt; inactive = no such curve, though single readings can be large or run the other way. No potency is given beside an inconclusive call; the fits are too rough.
# Test: qHTS for induction of synthetic lethality in tumor cells producing 2HG: qHTS for the HT-1080-IDH1KD cell line;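 for activity, negative = toxicity: 0% = DMSO wells and -100% = cell-free medium wells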
# Settings: HT-1080 IDH1 knockdown viability, ATP luminescence, 48 h; activity, negative = toxicity: at 46.1 µM (top of the series) unless noted
# Summary of the method: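 CellTiter-Glo luminescence after 48 h compound exposure at 37 degrees C of IDH1-knockdown HT-1080 cells in 5% FBS RPMI. %Activity scaled between DMSO wells and cell-free media wells, with curves fitted and assigned curve classes.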
# Potency is the fitted concentration of half-maximal effect; tags give direction and shape of the fitted curve.
Compound,Potency,"activity, negative = toxicity"
Cc1c(C(=O)Nc2ccc3oc(-c4cccnc4)nc3c2)oc2ccccc12,"inconclusive [cytotoxic, single point]",
COc1ccccc1CNc1nc(NCCOc2ccccc2)c2sccc2n1,"inconclusive [cytotoxic, single point]",
O=C(O)Cn1nc(-c2ccccc2)cc1-c1ccccc1,,inactive: 9.9%
CCn1ncc(/C=N\NC(=O)c2cc(-c3ccc(C)cc3C)nc3ccccc23)c1C,"inconclusive [cytotoxic, single point]",
O=c1c2ccccc2sc2c(CO)ccc(NCCN3CCCCC3)c12,"inconclusive [cytotoxic, single point]",
c1ccc(C(Cc2nc(-c3cccnc3)no2)c2ccccc2)cc1,"inconclusive [cytotoxic, partial curve]",
CCOc1ccccc1N(CC(=O)Nc1ccccc1)S(=O)(=O)c1ccccc1,,inactive: -4.29%
CCCc1nc2ccc(C)cn2c1Cc1cccc(Cl)c1,"inconclusive [cytotoxic, single point]",
O=C(Nc1nnc(-c2cccs2)o1)c1cc(-c2ccccc2)nc2ccccc12,"inconclusive [cytotoxic, partial curve]",
O=[N+]([O-])c1ccc(N2CCN(S(=O)(=O)c3ccc(Cl)cc3)CC2)cc1NCc1cccnc1,,inactive: 5.12%
Brc1ccc2c(c1)[C@H]1OCC[C@H]1[C@@H](c1cccs1)N2,active: 9.2 µM,
N#Cc1c(NCCCO)nc(-c2ccccc2)c2c1CCCC2,,inactive: -29%
CC1CCCN(S(=O)(=O)c2ccc(NC(=O)Cn3nnc(-c4ccccc4F)n3)cc2)C1 (stereo not drawn),"inconclusive [cytotoxic, single point]",
N#CC1=C(N)C(C#N)(C#N)[C@H](c2ccsc2)[C@H]2COCC=C12,"inconclusive [cytotoxic, single point]",
C=C1CCC[C@]2(C)C[C@H]3OC(=O)C(CNC(C)CC)[C@H]3CC12 (stereo partly drawn),"inconclusive [cytotoxic, single point]",
O=C(CN1C(=O)CSc2ccccc21)N1CCc2ccccc21,"inconclusive [cytotoxic, single point]",
COc1cc(NC(=O)c2c(F)c(F)c(OC)c(F)c2F)ccc1NC(=O)c1cccs1,,inactive: -5.65%
Cc1nc([N+](=O)[O-])c(Br)n1CC(=O)c1ccc(Cl)cc1,active: 18.4 µM,
Cc1cc(SCC(=O)N(C)CC(=O)Nc2ccc(F)cc2)nc2ccccc12,,inconclusive: -10.7% [cytotoxic]
Cc1ccc(NC(=O)Cn2c(CCC(=O)O)ccc2-c2cccs2)cc1Cl,,inconclusive: 15.5%
CC1=NOC(=O)/C1=C\c1ccc(-c2ccc(Cl)cc2Cl)o1,"inconclusive [cytotoxic, single point]",
COc1ccc(OC)c(NC(=O)CSc2nc3c(c(=O)n(C)c(=O)n3C)n2C)c1,,inactive: 9.41%
COc1ccc(C(=O)OCC(=O)NC(=O)NC2CCCC2)c(OC)c1,,inactive: 1.4%
CCOC(=O)Nc1cccc(NC(=O)c2cc(OC)cc(OC)c2)c1,,inactive: 6.81%

Compound,Potency,"activity, negative = toxicity"
O=[N+]([O-])c1ccc(/C=N/Nc2ccc3ccccc3c2)o1,"inconclusive [cytotoxic, single point]",
Cc1oc2c(c1C(=O)Nc1cccc(C(=O)O)c1)CCCC2,"inconclusive [rising, partial curve]",
O=C(O)c1ccc(Sc2nnnn2-c2ccccc2)c([N+](=O)[O-])c1,,inactive: 8.47%
CCOC(=O)N1CCN(S(=O)(=O)c2ccc(C(=O)N(CCN(C)C)c3nc4ccc(Cl)cc4s3)cc2)CC1,,inactive: -25.3%
Cc1ccc2c(c1)Cc1nc3ccccc3nc1-2,"inconclusive [cytotoxic, partial curve]",
Nc1c(-c2cccc(Cl)c2)cnn1-c1cccc([N+](=O)[O-])c1,,inconclusive: 31.4%
COc1ccccc1CNC(=O)C1(C)CCN1Cc1ccc(OC(F)(F)F)cc1 (stereo not drawn),"inconclusive [cytotoxic, single point]",
NC(=O)c1nsc(C(=O)N(c2ccccc2)C(C(=O)NC2CCCC2)c2ccc3ncccc3c2)c1N (stereo not drawn),,inactive: -16.9%
Nc1nc2c(nnn2Cc2ccc(Cl)c(Cl)c2)c(=O)[nH]1,,inactive: -25.9%
NNc1nc(Nc2ccccc2)nc(N2CCCCC2)n1,"inconclusive [cytotoxic, single point]",
CCOC(=O)c1oc2ccc(CNC(C)(C)C)c(Cl)c2c1C,"inconclusive [cytotoxic, single point]",
CCOC(=O)C1=CC[C@@H](c2ccc(OC)cc2)N(S(=O)(=O)c2ccc(C)cc2)[C@H]1CC,"inconclusive [cytotoxic, single point]",
CCOc1ccc(N2C(=O)CC(Sc3nnnn3-c3ccccc3)C2=O)cc1 (stereo not drawn),active: 14.6 µM,
COCc1cc(S(=O)c2ccc(Cl)cc2)nc(C)n1 (stereo not drawn),"inconclusive [cytotoxic, single point]",
OC(c1ccccn1)(c1ccccn1)c1ccccn1,"inconclusive [cytotoxic, single point]",
O=C(OCc1nc2ccc(Cl)cc2n1CCO)c1ccc(O)cc1,"inconclusive [cytotoxic, partial curve]",
Oc1ccccc1/C=N/Nc1ncc(Br)cn1,"inconclusive [cytotoxic, partial curve]",
Cc1ccc(SCCC(=O)Nc2cccc(N(C)S(C)(=O)=O)c2)cc1,,inactive: -2.28%
CC(=O)Nc1ccc(S(=O)(=O)N2CCC(c3nc4ccccc4[nH]3)CC2)cc1,"inconclusive [cytotoxic, single point]",
c1ccc(-c2ccc(OCCCNC3CCCC3)cc2)cc1,active: 18.4 µM,
O=C(c1cc(S(=O)(=O)N2CCOCC2)ccc1F)N1CCc2ccccc21,,inactive: -9.88%
CCO[C@@H]1OC(C(=O)NCc2nc3ccccc3[nH]2)=C[C@H](c2ccccc2)[C@H]1CCCO,,inactive: -0.255%
CNc1nc(NC#N)nc(SC)n1,,inactive: 0.241%
COc1ccc(/C=C2\SC(N3CCc4ccccc4C3)=NC2=O)cc1OC,"inconclusive [cytotoxic, single point]",
